Laboratory results published in the antibiotic and cytotoxicity screens of Wong et al. (2023).
This is one part of the list.

How the values were obtained:
HSkMC = human skeletal muscle cells; experiment: cytotoxicity call (relative viability < 0.9); details: 10 µM
HepG2 = experiment: cytotoxicity call (relative viability < 0.9); details: 10 µM
S. aureus RN4220 = experiment: growth inhibition call (relative growth <= 0.2); details: 50 µM

SMILES	cytotoxicity call (HSkMC)	cytotoxicity call (HepG2)	growth inhibition call (S. aureus RN4220)
COc1ccc(CN(C)C[C@H]2OCCCC[C@H](C)Oc3ccc(NS(=O)(=O)c4ccc(F)cc4)cc3C(=O)N([C@H](C)CO)C[C@H]2C)cc1	inactive	inactive	inactive
C[C@H](CO)N1C[C@H](C)[C@@H](CN(C)S(=O)(=O)c2ccc(C(F)(F)F)cc2)OCc2ccccc2-c2ccccc2C1=O	inactive	inactive	inactive
Cc1ccc(S(=O)(=O)N(C)C[C@H]2Oc3cc(Br)ccc3S(=O)(=O)N([C@H](C)CO)C[C@@H]2C)cc1	inactive	inactive	inactive
C[C@@H]1CN([C@H](C)CO)C(=O)c2cc(NC(=O)CCCN(C)C)ccc2O[C@H]1CN(C)C(=O)Nc1ccc(F)cc1	inactive	inactive	inactive
COc1cc([C@@H](O)CO)ccc1OS(=O)(=O)O	inactive	inactive	inactive
NCC(O)c1ccc(O)c(O)c1.O=C(O)C(O)C(O)C(=O)O (stereo not drawn)	inactive	active	inactive
Cc1noc(C)c1S(=O)(=O)Nc1ccc2c(c1)CC(=O)N([C@@H](C)CO)C[C@@H](C)[C@@H](CN(C)C(=O)NC(C)C)O2	inactive	inactive	inactive
COc1ccc(NC(=O)Nc2ccc3c(c2)C(=O)N([C@H](C)CO)C[C@H](C)[C@H](CN(C)S(=O)(=O)c2ccc(F)cc2)OCCCC[C@@H](C)O3)cc1	inactive	inactive	inactive
O=C(CCCCCNC(=O)OCCCCO[C@@H]1C[C@H](c2ccc(C(F)(F)F)cc2)C=C(C(=O)N2CCN(Cc3ccccc3)CC2)O1)NO	inactive	inactive	inactive
CN(C)C(=O)CN1C[C@@H]2CCN(C(=O)NCc3ccccc3)CC[C@H]2S1(=O)=O	inactive	inactive	inactive
NCC[C@H]1CC[C@H](NC(=O)C2CCCC2)[C@@H](CO)O1	inactive	inactive	inactive
CO[C@@H]1CN(C)C(=O)c2cc(NC(=O)NC(C)C)ccc2OC[C@@H](C)N(Cc2ccc(-c3ccccn3)cc2)C[C@@H]1C	inactive	inactive	inactive
CCO/N=[N+](\[O-])N1CCCC1	inactive	inactive	inactive
O=C(c1cccnc1)N1C[C@H]2[C@@H](c3ccccc31)[C@@H](CO)N2C(=O)CN1CCOCC1	inactive	inactive	inactive
CC1=NNc2nc3c(c(=O)n(C)c(=O)n3C)n2C1	inactive	inactive	inactive
COc1ccc(NC(=O)Nc2ccc3c(c2)C(=O)N([C@H](C)CO)C[C@@H](C)[C@@H](CN(C)C(=O)NC2CCCCC2)OCCCC[C@H](C)O3)cc1	inactive	inactive	inactive
COc1ccc(NC(=O)Nc2ccc3c(c2)C(=O)N([C@H](C)CO)C[C@H](C)[C@H](CN(C)Cc2ccc(C(=O)Nc4ccccc4N)cc2)OCCCC[C@@H](C)O3)cc1	inactive	inactive	inactive
CC(C)c1c(C(=O)c2ccccc2)c(-c2ccccc2)c(-c2ccc(F)cc2)n1CC[C@@H](O)C[C@@H](O)CC(=O)O	inactive	inactive	inactive
CC(C)=CC[N+]1(C)CCCCC1	inactive	inactive	inactive
C[C@@H]1CN([C@@H](C)CO)C(=O)c2cccc(NC(=O)c3ccc(-c4nccs4)cc3)c2O[C@@H]1CN(C)S(C)(=O)=O	inactive	inactive	inactive
C[C@@H]1CCCCO[C@H](CN(C)S(=O)(=O)c2ccc(F)cc2)[C@@H](C)CN([C@H](C)CO)C(=O)c2cc(NC(=O)CCCCCC(=O)Nc3ccccc3N)ccc2O1	inactive	inactive	inactive
C[C@@H]1CN([C@H](C)CO)C(=O)c2cc(NC(=O)Nc3ccc(C(F)(F)F)cc3)ccc2O[C@H]1CN(C)C(=O)Nc1ccc(F)cc1	inactive	inactive	inactive
Nc1cccc2c1C(=O)N([C@H]1CCC(=O)NC1=O)C2=O	inactive	inactive	inactive
Cc1ccc(S(=O)(=O)Nc2ccc3c(c2)C(=O)N([C@H](C)CO)C[C@@H](C)[C@@H](CN(C)S(C)(=O)=O)OCCCC[C@H](C)O3)cc1	inactive	inactive	inactive
COc1ccc(NC(=O)Nc2ccc3c(c2)C(=O)N([C@@H](C)CO)C[C@@H](C)[C@@H](CN(C)C(=O)Cc2ccccc2)OCCCC[C@@H](C)O3)cc1	inactive	inactive	inactive
Cn1c(=O)c2c(nc(SCSc3nc4c(c(=O)n(C)c(=O)n4C)n3C)n2C)n(C)c1=O	inactive	inactive	inactive
